Hit rate of the full screen: of about 150,000 compounds, about 540 (0.36%) showed an effect of 50% or more. The list shows a part of the results.
Test system: Plasmodium falciparum
Test: Primary screen in NF54 nanoGlo assay, in single point, at 2uM, 72h; a lower Z score goes with more inhibition
Type: functional, Erythrocyte
Conditions: timepoint 72 hour

Compound | % Inhibition [%] | Z score
COC(=O)[C@@H]1C[C@H](O)CN1Cc1ccc(-n2nc(C)cc2C)cc1 | -4 | 0.69
COC(C1CC1)C(C)NC(=O)C1CCCCC(=O)N1 (stereo not given) | -8 | 1.06
Cc1nnc2ccc(Br)cc2c1C | -4 | 0.49
Cc1cc(S(C)(=O)=O)cc(C(=O)N2CCCc3ccccc3CC2)c1C | -4 | 0.59
CN1CCN(C[C@@H]2CN(C(=O)c3ccc(N(C)C)cc3)C[C@@H]2CO)CC1 | -17 | 1.59
CCCn1ncc(C(=O)NC[C@H]2CCS(=O)(=O)C2)c1C | -7 | 1.08
O=C(NC[C@H]1CCCO1)c1ccc2nc(-c3ccccc3)cn2c1 | -11 | 2.21
C[C@@H](CCn1cccn1)NCc1ccc2c(c1)OCCO2 | -9 | 1.27
Cc1c(NCc2cccc3c2OC(C)(C)C3)cccc1C(=O)NCCO | 2 | -0.3
Cc1cc(CC2CCCC2NCc2scnc2C)n(C)n1 (stereo not given) | -6 | 0.72
O=C(Cn1cnc(-c2ccccc2)n1)NCc1noc(-c2cccc(Br)c2)n1 | -9 | 1.27
CC(C)(C)c1cc(Cn2nc3ccncc3c2C(F)(F)F)no1 | -18 | 2.56
CC1CCC2(CC1)OC[C@@H](C(=O)NCCN1CCCC1)N2C(=O)c1ccccc1F (stereo not given in full) | -2 | 0.29
Cc1cc(N2CCCCCC2)n2nc(Cc3ccccc3)nc2n1 | -6 | 1.09
C[C@@H]1CN(C(=O)c2cc(F)ccc2Cl)CCN(C2CC2)C1 | 6 | -0.75
Cc1c(C(=O)N2CCC[C@H](C)C2)cnn1-c1nccc(-c2cccs2)n1 | 12 | -1.53
CN(C(=O)c1ccc(C(F)(F)F)nc1)[C@H]1CCCC[C@H]1C(F)(F)F | -11 | 1.38
CCc1csc(CNC(=O)c2cnn[nH]2)n1 | 15 | -1.9
CCCCC(=O)N1CCN(C(=O)CCCC)c2ccc(O)cc2C1 | -7 | 0.8
CCc1c(NC(=O)COC)nnn1CCc1ccc(OC)cc1 | -16 | 1.71
CCn1cnnc1CN(C)Cc1c(C)nc2ccccn12 | 2 | -0.25
CN1CC(=O)N(Cc2nc(C3(c4ccc(F)cc4)CCCCC3)no2)C1=O | -6 | 1.21

Compound | % Inhibition [%] | Z score
CCN(CCc1nc2c(C)cccc2[nH]1)C(=O)Cc1cc(C)no1 | 11 | -1.58
CC(C)(C)n1cncc1[C@H]1CCCN(C(=O)NCc2nccs2)C1 | -9 | 1.81
COCCNC(=O)[C@H]1C[C@H](Oc2ccccc2)CN1Cc1ccc(OC(F)(F)F)cc1 | -19 | 3.56
CCCc1cc(C(=O)NCCN2CCOCC2)no1 | -15 | 1.68
O=C(Nc1ccc(Cl)cc1)C1(F)C(F)(F)C(F)(F)C(F)(F)C(F)(F)C1(F)F | -5 | 0.86
NS(=O)(=O)c1ccc(CCNc2nc3ccccc3o2)cc1 | -3 | 0.4
COc1cc(C)ccc1OCc1nc(C(=O)NCc2nc(C)c[nH]2)co1 | 12 | -1.45
CN(Cc1cnn(C)c1)C[C@H]1CCCN1C(=O)OC(C)(C)C | -1 | 0.12
O=C(NC1CCCCC1)c1nccnc1C(=O)N1CCCCC1 | -17 | 1.55
NC(=O)c1ccc(-n2ccnc2-c2cccc(-n3cccn3)c2)cc1Cl | -7 | 0.95
Cc1ccccc1N1C(=O)CN(S(=O)(=O)c2ccccc2)C[C@@]1(C)C(=O)NCc1ccc(F)cc1 | -11 | 1.34
CC[C@H](NC(=O)CCn1c(C)cc(C)nc1=O)c1cc(C)ccn1 | -8 | 1.36
CCNC(=O)N1CCC(Cc2ccc(C(=O)N(C)CCc3c(C)nn(C)c3C)cc2)CC1 | -16 | 2.01
Cc1ccc(-n2nnc(-c3nc(C)c(C(=O)NCCc4ccccc4)s3)c2C)cc1C | -2 | 0.15
Cc1nc(C)c(CNC(=O)N2CCC3CCCCC32)s1 (stereo not given) | 1 | -0.08
O=c1ccncn1CC1CCN(Cc2cc(F)cc(F)c2)CC1 | -9 | 1.26
N#CCN(CC#N)C(=O)Cc1cccs1 | -1 | 0.14
Cc1[nH]c2ccc(Br)cc2c1Cc1nc(-c2cncc(Cl)c2)no1 | -4 | 0.65
N#Cc1ccc(O[C@H]2CCOC[C@@H]2NC(=O)CCc2cc(O)no2)cc1 | 5 | -0.65
CCN(CC)S(=O)(=O)c1ccc(NCc2nncn2C)cc1 | -7 | 1.31
C[C@H]1CN(CCC(=O)NCc2nccs2)Cc2ccccc2O1 | -6 | 0.89
NC(=O)c1cccc(CS(=O)(=O)CC2CCCC2)n1 | -13 | 1.39

Compound | % Inhibition [%] | Z score
O=C(NCc1ccccn1)c1ccc(OCc2nnc(C(=O)Nc3ccc(F)c(F)c3)s2)cc1 | -33 | 3.03
COc1cc(C)nc(NCc2nc(C(F)(F)F)c[nH]2)n1 | -6 | 0.69
CCOc1ccccc1C(F)(F)C(=O)Nc1cn(C)nc1C(N)=O | -1 | 0.29
CCn1nccc1C1NC(=O)CCC1NC(=O)c1ccccc1C (stereo not given) | 29 | -3.3
Cn1cc(CCNCc2c[nH]nc2-c2cccs2)cn1 | -9 | 1.23
Cc1nc(CNC(=O)CCn2c(C)nc3ccccc32)nc2c1CCCC2 | -10 | 1.23
CC(C)c1nnc(CNc2ccc(C#N)cc2)o1 | 36 | -0.73
Cc1cccc(NC(=O)CN(CC2CCCO2)C(=O)C2CCS(=O)(=O)C2)c1C (stereo not given) | 13 | -1.17
CN(CC(=O)Nc1cccc(Cl)c1Cl)S(C)(=O)=O | -4 | 0.74
CC(C)(C(=O)Nc1cccc(OCC(=O)O)c1)[C@@H]1CCCCO1 | -11 | 1.16
O=C(NCc1ccncc1)c1c[nH]c2cc(Cl)ccc2c1=O | 6 | -0.81
CCCn1cc(-c2ccnc(N[C@H](C)c3ccccc3)n2)c(C)n1 | -9 | 1.41
COC(=O)[C@@H]1C[C@@H](O)CN1C(=O)c1coc(COc2cccc(F)c2)n1 | -20 | 1.87
O=C(CCc1cnccn1)N1CCO[C@@H](CC(c2ccccc2)c2ccccc2)C1 | -2 | 0.41
Cc1nc(O)nc(O)c1S(=O)(=O)N1CCC[C@H](C(=O)NC2CCCCCCC2)C1 | 10 | -1.22
COc1ccc(-c2ccc(N3CCN(C(=O)CN(C(=O)NC(C)(C)C)[C@@H](C)c4ccccc4)CC3)nn2)cc1OC | -23 | 1.99
CC(C)(C)c1csc(Cn2cnc(C#N)n2)n1 | -10 | 1.53
COc1cc(NC(=O)c2cc(Br)ccc2Cl)ncn1 | 1 | -0.11
CCc1ccccc1-c1noc([C@@H]2COCCO2)n1 | 18 | -2.25
CCc1nc(C)c(C(=O)N[C@@H](CC)c2ncccc2C)o1 | -11 | 1.74
CC(C)(Oc1cccc(Cl)c1)C(=O)NCCNS(C)(=O)=O | -15 | 2.03
CC(=O)Nc1nc(-c2ccc(S(=O)(=O)N3CCOCC3)cc2)cs1 | -6 | 0.9

Compound | % Inhibition [%] | Z score
CC(C)(C)[C@H](COc1ccccc1F)NC(=O)CCn1ccnn1 | -10 | 1.35
CCn1nncc1CNC(=O)Nc1c(Cl)ccc(C)c1C | -4 | 0.55
Cc1nc(O)nc(C)c1CCC(=O)NC(C)(C)Cc1ccc(O)cc1 | 5 | -0.66
Cn1ncc(CN2CCC[C@H](C(=O)Cc3ccccc3)C2)c1C1CC1 | -13 | 1.29
Cc1cc(C(=O)N2CCc3c(ncn3-c3ccc(F)cc3)C2)nn1[C@@H](C)C1CC1 | 35 | -3.99
COc1ccc(NC(=O)N(CCO)Cc2nccs2)cc1OC | -9 | 1.62
Cc1nn(C(F)F)cc1S(=O)(=O)N1CCNCC1 | 0 | -0.02
COc1ccc(C2CN(Cc3ccccc3)CC2CO)cc1 (stereo not given) | 4 | -0.45
CNC(=O)C1(N2CCC[C@H]2C(=O)NCc2ccccc2)CCOCC1 | -1 | 0.14
CC(C)(C)C1CCC(CNC(=O)Nc2nc(CS(C)(=O)=O)no2)CC1 (stereo not given) | -4 | 0.56
Cc1cc(N2CCC(NC(=O)c3c(F)cccc3Cl)CC2)n[nH]1 | -13 | 1.68
Cc1cc(NC(=O)[C@@H]2CN(C)c3ccccc3O2)ccc1N1CCCC1=O | -3 | 0.38
O=C(C1c2ccccc2Oc2ccccc21)N1CCC(Oc2ccc(Cl)cn2)CC1 | -8 | 1.22
Cc1cc(C)cc(OCCCN2CCC[C@@H]2C(=O)O)c1 | 5 | -0.66
O=C(CCc1ccccn1)N1CCC[C@H](Cc2nc3ccccc3[nH]2)C1 | 1 | -0.08
CN(Cc1ccccc1)c1ncnc2c1CCN(C(=O)C1CCC1)CC2 | -21 | 2.11
CC(C)c1nc(C(=O)NCC2(N3CCN(C)CC3)CCCC2)cs1 | 1 | -0.26
CC(=O)N1CCC(C(=O)N2CC[C@@]3(CCCN(CCC4CCCCC4)C3)C2)CC1 | -6 | 0.79
CNc1nc2c(c(C(=O)N3CCCC3)n1)CN(C/C=C/c1ccccc1)CC2 | 3 | -0.4

— ChEMBL document CHEMBL4888484, “Replenishing the malaria drug discovery pipeline: Screening and hit evaluation of the MMV Hit Generation Library 1 (HGL1) against asexual blood stage Plasmodium falciparum ,using a nano luciferase reporter read-out” (2022)
